PubChem BioAssay AID1345082 (National Center for Advancing Translational Sciences (NCATS), 2018)
About 4,000 (4.3%) of roughly 94,000 compounds were called active. Inconclusive results, whose numbers are uncertain, are shown with a selection of clear calls. Calls follow the shape of the dose curve; as a rule, active = well fitted inhibition curve with a large enough effect; inconclusive = small, poorly fitted or top-dose-only effect; inactive = no such curve, though single readings can be large or run the other way. A potency beside an inconclusive call is a rough fit, not a confirmed value.

Experiment: Cytotoxic Profiling in NIH 3T3 Cell Line of Diverse Libraries Using Quantitative High-Throughput Screening; also: nearly all actives have a fitted effect of over 55% in size
Details: NIH 3T3 viability, CellTiter-Glo ATP luminescence, 48-72 h; activity change, negative = cytotoxicity: at 96.7 µM (top of the series) unless noted; series mostly up to 96.7 µM
Procedure, shortened: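 Cells were seeded at 400 per well, treated with pin-transferred compound, and kept 48 or 72 hr at 37 °C before CellTiter-Glo addition and luminescence imaging of cellular ATP.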
% is scaled to controls: 0 for no effect and ±100 for the full control effect; potency is read from the fitted curve at half-maximal effect; tags tell the direction and shape of the fitted curve.

Compound | Potency | activity change, negative = cytotoxicity
Cc1cc(C)cc(-c2ccc(CN3CCCC3C(=O)NC(C)C)cc2)c1 (stereo not drawn) | inconclusive: 44.7 µM [inhibitor, partial curve, poor fit] | 
C=CCN1C[C@H]2COc3cc(OC)ccc3[C@H]2N(C(=O)c2ccc(C)cc2)CCC1=O | inconclusive: 50.1 µM [inhibitor, partial curve, poor fit] | 
CN(Cc1noc2c1CCCC2)Cc1nnc(C2CC(N)C2)n1C (stereo not drawn) |  | inactive: 1.83%
CN1CCCC2(C1)CN(C)c1ccc(C(=O)Nc3ccc(F)cc3)cc12 (stereo not drawn) | inconclusive: 100 µM [inhibitor, partial curve] | 
Cc1cc(CNC(=O)c2cc(-c3ccncc3)cc3c2OCCN3C)no1 | inconclusive: 56.2 µM [inhibitor, partial curve, poor fit] | 
CC[C@H]1CN(C(=O)c2ccnc(Cl)c2)CC[C@H]1CC(=O)NCc1cccc2ccccc12 |  | inactive: -22.8%
Cc1noc(C)c1[S+](=O)([O-])NCCNC(=O)c1cccc(-c2ccsc2)c1 | inconclusive: 44.7 µM [inhibitor, partial curve, poor fit] | 
CC1(c2ccccc2)N(Cc2ccc(O)cc2)C(=O)OC12CCN(C(=O)c1ccccc1)CC2 (stereo not drawn) | inconclusive: 50.1 µM [inhibitor, partial curve, poor fit] | 
O=C(Nc1ccc(OC(F)(F)F)cc1)N1CCOC[C@H](Oc2ccccc2)C1 | active: 31.6 µM | 
COc1cncc(-c2cc(C(=O)NCc3cccnc3)c3c(c2)N(C)CCO3)c1 | inconclusive: 56.2 µM [inhibitor, partial curve, poor fit] | 
O=C1CCNc2cc3c(cc2CN1Cc1ccccc1)OCO3 | inconclusive: 50.1 µM [inhibitor, partial curve, poor fit] | 
Cc1ccc(-n2nc(C)c([C@@H]3C=C[C@@H](NCc4ccc(F)cc4)C3)c2C)cc1Cl | inconclusive: 17.8 µM [inhibitor, full curve, poor fit] | 
O=C(CN1CC2CC(C1)[C@H]1CCCC(=O)N1C2)N1CCN(Cc2ccc3c(c2)OCO3)CC1 (stereo partly drawn) |  | inactive: 0.043%
CC(C)CN1C(=O)c2cccn2CC1CN (stereo not drawn) |  | inactive: -3.91%
O=C(CC1C(=O)NCCN1Cc1cccc(Oc2ccccc2)c1)NC1CCOCC1 (stereo not drawn) | inconclusive: 89.1 µM [inhibitor, partial curve, poor fit] | 
CC1=C[C@@H](CNC(=O)CCC(=O)O)[C@H](C(C)C)C[C@H]1Cc1nc2ccccc2[nH]1 | inconclusive: 100 µM [inhibitor, partial curve, poor fit] | 
Cc1ccc(C(=O)N2CCOC(CN(C(=O)c3ccc(F)cc3)C3CCCC3)C2)cc1 (stereo not drawn) | inconclusive: 31.6 µM [inhibitor, partial curve, poor fit] | 
c1ccc(CN2CCC[C@H]2c2nc(-c3ccc(N4CCOCC4)nc3)no2)cc1 |  | inactive: -4.36% [at 174 µM]
COC(=O)N1CCN(c2ccc3nnc(-c4ccccc4)n3n2)CC1 | inconclusive: 56.2 µM [inhibitor, partial curve, poor fit] | 

Compound | Potency | activity change, negative = cytotoxicity
Cc1ccc2oc([C@H]3CCN(S(=O)(=O)c4ccc(F)cc4)C3)nc2c1 | inconclusive: 56.2 µM [inhibitor, partial curve, poor fit] | 
CN1C(=O)C(CC(=O)NCC2CCN(Cc3ccc(F)cc3)CC2)=C2CCCCC21 (stereo not drawn) |  | inactive: -4.17%
CCCC1CN(Cc2ccc3c(c2)OCO3)C(=O)c2ccc(C)nc2O1 (stereo not drawn) | inconclusive: 25.1 µM [inhibitor, partial curve, poor fit] | 
FC(F)(F)c1ccc(O[C@H]2COCCN(CC3CCCC3)C2)cc1 | active: 89.1 µM | 
O=C1NC2(CCCN(Cc3ccc(OC(F)(F)F)cc3)C2)Oc2ccccc21 (stereo not drawn) | inconclusive: 5.62 µM [inhibitor, full curve, poor fit] | 
COc1ccc(CN2C[C@@H](F)[C@@H](OCc3nc4ccccc4o3)C2)cn1 | inconclusive: 100 µM [inhibitor, partial curve, poor fit] | 
O=C(C[C@@H]1CCNC[C@@H]1Cc1cc(COc2ccccc2)on1)NCc1ccccc1 | inconclusive: 126 µM [inhibitor, partial curve, poor fit] | 
Cc1cccc(-c2nc(Cn3c(-c4ccccc4)nc(C)c(CCO)c3=O)c(C)o2)c1 | inconclusive: 50.1 µM [inhibitor, partial curve, poor fit] | 
COc1ccc(-c2nc(-c3ccccc3)nc3c2CN(C(=O)C2CCCC2)CC3)cc1 | inconclusive: 39.8 µM [inhibitor, partial curve] | 
CCOc1ccc(C(=O)N2CCC(c3n[nH]c(=O)n3-c3ccc(C)cc3)CC2)cc1 | inconclusive: 44.7 µM [inhibitor, partial curve, poor fit] | 
COc1cc(F)ccc1CN1CCCCC12Cc1ccccc1CNC2=O (stereo not drawn) |  | inactive: -10.6%
O=C(c1ccc(Cl)cc1)N1CC2(CCN(C3COC3)CC2)Cc2ccccc21 | inconclusive: 89.1 µM [inhibitor, partial curve, poor fit] | 
O=C(C[C@H]1NC(=O)c2ccccc2NC1=O)Nc1ccc(C(F)(F)F)cc1 | inconclusive: 44.7 µM [inhibitor, partial curve, poor fit] | 
COC(=O)N1CCN(C(=O)c2cccc(-c3ccccc3OC)c2)CC1 | inconclusive: 50.1 µM [inhibitor, partial curve, poor fit] | 
O=C(Cc1ccsc1)N1CCC2(CC1)CC(N(Cc1ccc(F)cc1)C1CC1)CCO2 (stereo not drawn) | inconclusive: 44.7 µM [inhibitor, partial curve, poor fit] | 
CCOc1ccccc1C(=O)N1CCC[C@H]1c1nc(-c2ccc(F)cc2)no1 | inconclusive: 44.7 µM [inhibitor, partial curve, poor fit] | 
CN(C)c1ccc(CN2CCC3(Cc4ccccc4NC3=O)C2)cc1 (stereo not drawn) | inconclusive: 89.1 µM [inhibitor, partial curve] | 
COc1cc(Cl)ccc1C(=O)N1CCC[C@H]1c1nc(-c2ccccc2)no1 | inconclusive: 44.7 µM [inhibitor, partial curve, poor fit] | 
CC1=C[C@@H](CNCc2ccncc2)[C@H](C(C)C)C[C@H]1Cc1nnc(-c2ccccc2F)o1 | inconclusive: 89.1 µM [inhibitor, partial curve, poor fit] | 
